Substitutions are numbered along the chain they refer to. No constants are given. Whether binding was seen depends on the method and setting. In cells and extracts the contact can be indirect. Some entries that bind do so weakly or less than the wild type. Tags and fused reporters may be left off the sequences shown. Each block holds one molecule with its values, some of them ahead of it.
Legend:
FLAG-Raf1 (S. pombe) = target: T1, FLAG-Raf1 (S. pombe) (UniProt O74910); test: co-IP; anti-FLAG M2 on proteinG Dynabeads, 1 hr, S. pombe lysate (50 mM Hepes pH7.5, 150 mM KCl, 0.1% NP40), four washes, Western with anti-FLAG and anti-myc; raf1-1 panels and their wild type from cells grown at 36°C
T1 sequence: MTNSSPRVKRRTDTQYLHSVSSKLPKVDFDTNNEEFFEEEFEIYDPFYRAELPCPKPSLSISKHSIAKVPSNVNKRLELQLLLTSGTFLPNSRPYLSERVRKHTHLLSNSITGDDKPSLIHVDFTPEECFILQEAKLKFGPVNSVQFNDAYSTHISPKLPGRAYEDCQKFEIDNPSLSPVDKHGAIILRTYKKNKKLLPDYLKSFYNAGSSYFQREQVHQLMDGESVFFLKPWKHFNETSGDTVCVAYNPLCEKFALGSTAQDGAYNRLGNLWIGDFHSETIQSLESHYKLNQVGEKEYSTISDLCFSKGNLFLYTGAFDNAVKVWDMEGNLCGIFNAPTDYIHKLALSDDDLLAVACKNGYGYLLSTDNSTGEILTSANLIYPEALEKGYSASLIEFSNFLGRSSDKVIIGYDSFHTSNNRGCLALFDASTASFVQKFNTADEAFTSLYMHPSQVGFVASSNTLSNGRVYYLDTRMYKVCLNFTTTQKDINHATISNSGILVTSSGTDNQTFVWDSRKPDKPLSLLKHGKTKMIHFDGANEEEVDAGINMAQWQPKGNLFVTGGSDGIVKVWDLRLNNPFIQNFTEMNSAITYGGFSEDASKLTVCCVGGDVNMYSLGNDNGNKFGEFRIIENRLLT

Sequences of proteins named here, by UniProt entry; tags and fusion partners are left off.
UniProt Q9HDV4: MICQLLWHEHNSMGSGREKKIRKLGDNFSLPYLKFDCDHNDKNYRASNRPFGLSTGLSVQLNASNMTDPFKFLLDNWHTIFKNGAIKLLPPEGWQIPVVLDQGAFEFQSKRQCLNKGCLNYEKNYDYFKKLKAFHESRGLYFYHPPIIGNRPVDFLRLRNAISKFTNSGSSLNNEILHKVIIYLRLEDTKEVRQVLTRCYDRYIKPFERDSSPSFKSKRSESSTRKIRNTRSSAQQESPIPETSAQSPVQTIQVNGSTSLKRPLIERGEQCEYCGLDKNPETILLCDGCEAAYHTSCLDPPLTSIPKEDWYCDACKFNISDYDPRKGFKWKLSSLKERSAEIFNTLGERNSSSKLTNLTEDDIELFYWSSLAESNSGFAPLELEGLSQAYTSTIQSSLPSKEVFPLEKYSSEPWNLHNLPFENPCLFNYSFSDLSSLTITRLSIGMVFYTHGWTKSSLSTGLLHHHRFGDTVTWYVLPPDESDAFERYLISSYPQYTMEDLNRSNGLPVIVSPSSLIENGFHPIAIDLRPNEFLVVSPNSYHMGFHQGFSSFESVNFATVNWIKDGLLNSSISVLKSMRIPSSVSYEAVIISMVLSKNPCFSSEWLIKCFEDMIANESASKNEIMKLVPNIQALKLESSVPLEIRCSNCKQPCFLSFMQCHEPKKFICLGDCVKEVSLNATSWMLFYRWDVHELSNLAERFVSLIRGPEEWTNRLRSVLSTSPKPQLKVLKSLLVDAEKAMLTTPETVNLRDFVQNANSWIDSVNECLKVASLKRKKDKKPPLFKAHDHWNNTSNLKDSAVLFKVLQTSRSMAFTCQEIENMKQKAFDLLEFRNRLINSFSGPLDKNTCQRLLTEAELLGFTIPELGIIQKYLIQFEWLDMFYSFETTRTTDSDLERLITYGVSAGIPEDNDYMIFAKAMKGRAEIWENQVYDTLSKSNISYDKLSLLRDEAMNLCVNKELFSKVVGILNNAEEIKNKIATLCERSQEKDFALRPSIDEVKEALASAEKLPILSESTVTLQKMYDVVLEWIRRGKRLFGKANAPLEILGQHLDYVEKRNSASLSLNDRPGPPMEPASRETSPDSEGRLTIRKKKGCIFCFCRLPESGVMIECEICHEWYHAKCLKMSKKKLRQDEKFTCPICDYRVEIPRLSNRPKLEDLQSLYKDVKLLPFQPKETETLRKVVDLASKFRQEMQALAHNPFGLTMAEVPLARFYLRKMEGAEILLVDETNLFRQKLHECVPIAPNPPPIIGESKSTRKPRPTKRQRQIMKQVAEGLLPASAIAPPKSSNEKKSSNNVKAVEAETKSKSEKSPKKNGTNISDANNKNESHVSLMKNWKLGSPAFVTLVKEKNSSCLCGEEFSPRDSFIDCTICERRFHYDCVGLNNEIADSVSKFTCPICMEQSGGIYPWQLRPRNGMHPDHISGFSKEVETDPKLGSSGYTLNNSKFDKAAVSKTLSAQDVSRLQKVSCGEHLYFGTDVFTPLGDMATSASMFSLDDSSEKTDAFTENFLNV
UniProt O60016: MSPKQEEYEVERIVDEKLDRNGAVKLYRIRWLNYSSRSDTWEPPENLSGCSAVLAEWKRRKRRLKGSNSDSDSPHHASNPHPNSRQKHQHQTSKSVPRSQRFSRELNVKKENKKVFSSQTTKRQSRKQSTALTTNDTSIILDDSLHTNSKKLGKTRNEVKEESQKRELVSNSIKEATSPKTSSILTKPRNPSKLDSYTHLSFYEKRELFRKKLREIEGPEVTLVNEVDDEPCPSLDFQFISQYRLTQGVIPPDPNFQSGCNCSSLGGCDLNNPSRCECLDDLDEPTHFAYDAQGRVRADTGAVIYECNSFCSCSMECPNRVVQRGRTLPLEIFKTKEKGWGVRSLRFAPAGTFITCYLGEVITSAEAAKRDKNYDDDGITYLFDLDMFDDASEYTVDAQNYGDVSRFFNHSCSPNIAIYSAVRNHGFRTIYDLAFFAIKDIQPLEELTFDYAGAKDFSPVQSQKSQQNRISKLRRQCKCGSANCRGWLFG

FLAG-Raf1-1 (S. pombe) = target: T2, FLAG-Raf1-1 (S. pombe) (UniProt O74910); test: as above
T2 sequence: T1 sequence with T495I

[1] = target: T3, FLAG-Raf1-R518A (S. pombe) (UniProt O74910); test: as above
T3 sequence: T1 sequence with R518A

[2] = target: T4, FLAG-Raf1-R576A (S. pombe) (UniProt O74910); test: as above
T4 sequence: T1 sequence with R576A

Lid2-TAP (S. pombe) = Lid2-TAP (S. pombe) (UniProt Q9HDV4); test: co-IP; TAP-tagged bait on Dynabeads coupled to IgG, S. pombe lysate (50 mM Hepes pH7.5, 150 mM KCl, 0.1% NP40), Western with anti-FLAG; raf1-1 panel from cells grown at 36°C

- binding (FLAG-Raf1 (S. pombe)): binds
- binding (FLAG-Raf1-1 (S. pombe)): no binding
- binding [1]: no binding
- binding [2]: no binding
Molecule: Clr4-Myc (from UniProt O60016 1-490) (enzyme)

- binding (Lid2-TAP (S. pombe)): no binding
B1: Rik1-FLAG (protein, UniProt Q10426 1-1040)
chain: MALCVHSFWATAVDTATSCHFISSENCLVLLQALKINIYLCSEVHGLQFFTSIPLFSTVKHIRPYRPPGLDRDYLFVVLNDDTYFSIYWDEDYQKVIVDHPPVRYRVTFPWNRNAKSYCLVDLRMRAIFLSIDEISMICIRILSAEERLKTGRSIDSGFPFSFPVHLIYDMCILNDSSTPTLVVLHSDGLDCYVTAFLLDLSSKSLGKGIRLFERVKPSMIMPFGKRGLLVFESLFIHCMYRGNFVTINGPCTTYMHWTPLKGQKMHYIVCDTNGYLFGVYSSILGKNKWSLVMERLPIPPFDFITSLNSIHEGLLFIGSKNSESKLINLSTLKDVDSIPNLGPIHDLLVLKNDIEKSFLVCAGTPRNASLIYFQHALKLDILGQTKISGILRAMVLPSYPEHKLFLGFPSETVAFNIKEDFQLELDPSLSTKERTIALSGTNGEFVQVTSTFLCIYDSAKRSRLVYIEKITNAACYQEYSAIVINGTALAIFKKDTEVARKVFESEISCLDFSAQFQIGVGFWSKQVMILTFSDNSSISCAFQTNVPSLPRNIILEGVGVDRNLLLVSSGSGEFKSYVLFKNNLVFSETKHFGTTPVSFRRFTMNIGTYIICNNDCPHMVYGFNGALCYMPLSMPQSYDVCQFRDNSGKDFLISVSLGGLKFLQLNPLPELTPRKVLLEHVPLQAIIFQNKLLLRTLENRYEDYESYKENYHLELVDSYDDNSFRVFSFTENERCEKVLKINESSLLVGTSIIEQDKLVPVNGRLILLEFEKELQSLKVVSSMVLSAAVIDLGVYNDRYIVAFGQQVAIVKLTEERLMIDSRISLGSIVLQLIVEGNEIAIADSIGRFTIMYFDGQKFIVVARYLFGENIVKAALYEGTVYIIATNSGLLKLLRYNKDAKNFNDRFICESVYHLHDKVSKFQNFPITNTNSFLEPKMLFATEIGAIGSIVSLKDKELELEELTRKIRKLKFSYLSSMDYESIEADLISPVPFIDGDLVIDVKRWASSELFRLCRSVEHRESLNSYQKVQALLEEIQSLC

From publication PMC3271066
